# The campaign covered roughly 310,000 compounds. About 14,000 (4.5%) showed an effect of 50% or more. Effects have a minus sign here. The list shows a part of the results.
# Molecular target: human ether-à-go-go-related gene (hERG) potassium channel (human, UniProt Q12809)
# Assay: primary screen, population patch clamp on CHO cells stably expressing hERG
# 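Also: peak tail current of the secondary pulse compared with the same well before compound.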
# Sequence of human ether-à-go-go-related gene (hERG) potassium channel (Q12809 whole entry, looked up): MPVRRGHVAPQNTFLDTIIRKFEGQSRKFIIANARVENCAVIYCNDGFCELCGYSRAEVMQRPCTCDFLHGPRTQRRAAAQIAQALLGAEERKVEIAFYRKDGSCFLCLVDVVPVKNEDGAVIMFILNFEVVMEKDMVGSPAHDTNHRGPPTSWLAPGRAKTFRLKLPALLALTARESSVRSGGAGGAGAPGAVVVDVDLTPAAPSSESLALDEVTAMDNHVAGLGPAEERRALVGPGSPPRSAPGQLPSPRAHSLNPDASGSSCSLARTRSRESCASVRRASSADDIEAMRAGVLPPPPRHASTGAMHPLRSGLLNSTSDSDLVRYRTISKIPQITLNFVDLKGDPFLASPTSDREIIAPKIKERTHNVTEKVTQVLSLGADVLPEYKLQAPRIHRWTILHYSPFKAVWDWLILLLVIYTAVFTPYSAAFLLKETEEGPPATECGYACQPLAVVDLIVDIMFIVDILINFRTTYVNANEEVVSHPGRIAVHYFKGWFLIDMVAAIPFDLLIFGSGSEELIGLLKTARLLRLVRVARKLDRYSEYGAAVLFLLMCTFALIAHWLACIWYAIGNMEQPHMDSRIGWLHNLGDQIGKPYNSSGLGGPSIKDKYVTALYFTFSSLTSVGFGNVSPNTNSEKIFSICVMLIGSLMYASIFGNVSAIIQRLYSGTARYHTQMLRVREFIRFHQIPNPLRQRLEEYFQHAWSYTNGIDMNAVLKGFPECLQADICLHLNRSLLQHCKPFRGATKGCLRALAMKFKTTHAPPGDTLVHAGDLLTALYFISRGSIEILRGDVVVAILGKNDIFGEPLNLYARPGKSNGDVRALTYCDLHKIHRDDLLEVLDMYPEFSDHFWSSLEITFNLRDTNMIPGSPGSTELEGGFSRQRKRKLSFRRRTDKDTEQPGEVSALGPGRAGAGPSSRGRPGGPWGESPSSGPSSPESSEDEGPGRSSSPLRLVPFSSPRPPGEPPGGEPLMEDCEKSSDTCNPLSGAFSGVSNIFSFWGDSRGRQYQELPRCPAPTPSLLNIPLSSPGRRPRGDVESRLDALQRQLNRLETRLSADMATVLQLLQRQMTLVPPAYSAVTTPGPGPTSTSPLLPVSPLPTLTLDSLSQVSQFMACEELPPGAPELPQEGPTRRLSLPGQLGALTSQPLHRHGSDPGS
row,Structure (SMILES),"hERG current change (%, negative = inhibition) at 10uM [%]"
1,OCCn1c(SCCOc2ccccc2F)nc2ccccc21,-12.3
2,Cc1onc(-c2ccccc2)c1CNC(=O)CN1C(=O)c2ccccc2C1=O,9.16
3,Cc1cc(C)c(S(=O)(=O)N2CCN=C2c2ccccc2)c(C)c1,-2.7
4,Cc1ccc(C)c(S(=O)(=O)NCCCn2ccnc2)c1,-16.8
5,COc1ccc(C2N3CC4(C)CN2CC(C)(C3)C4=O)cc1OC (centres unmarked),-3.38
6,COc1ccc(OC)c(C(C)NC(=S)Nc2ccc(S(=O)(=O)Nc3ncccn3)cc2)c1 (centres unmarked),4.66
7,O=C(O)Cc1ccc(O)c(O)c1,-9.88
8,COc1cc(/C=C/C(=O)O)cc(S(=O)(=O)Nc2ccccc2Cl)c1OC,18.8
9,Cn1c(=O)c2c(ncn2CC(=O)N2CCN(c3ccccc3)CC2)n(C)c1=O,0.318
10,Cc1ccc(CN(c2ccc(C(=O)NCc3ccccn3)cc2)S(C)(=O)=O)cc1,-10.4
11,CS(=O)(=O)N(CC(=O)N/N=C/c1cccc2c1OCCO2)c1ccccc1Br,2.75
12,CC1CCCCC1NC(=O)COc1ccc(-n2cnnn2)cc1 (centres unmarked),-18.8
13,Cc1cc(C)cc(OCc2nc3ncc(Br)cc3[nH]2)c1.Cl,4.47
14,O=C(O)COc1ccc(Br)cc1/C=C1/SC(=O)N(CC(=O)N2CCCC2)C1=O,3.77
15,CCOC(=O)c1csc(N/N=C2\CCCc3ccccc32)n1,20
16,O=C(NCCCN1CCN(CCCNC(=O)c2cc([N+](=O)[O-])ccc2Cl)CC1)c1cc([N+](=O)[O-])ccc1Cl,-25.5
17,O=C(NCCc1ccc(Cl)cc1)C1CCCN1C(=O)NCc1ccccc1 (centres unmarked),-11.3
18,FC(F)(F)c1nnc2sc(-c3ccco3)nn12,12.9
19,Cc1cc(C)cc(N(CC(=O)Nc2cccc(C)n2)S(=O)(=O)c2c(C)noc2C)c1,-25.5
20,S=c1nc[nH]c2nc[nH]c12,18
21,Cn1c(=O)oc2cc(S(=O)(=O)NC3CCCCCCC3)ccc21,-20.7
22,CC(=O)Cn1c(CN2CCN(C(=O)c3ccco3)CC2)nc2c1c(=O)n(C)c(=O)n2C,16

row,Structure (SMILES),"hERG current change (%, negative = inhibition) at 10uM [%]"
1,COc1ccc(CSCC(=O)Nc2ccccc2)cc1[N+](=O)[O-],-4.56
2,Cc1ccc(NC(=O)COC(=O)c2ccc(-n3cccn3)cc2)cc1C,3.48
3,O=C(COC(=O)c1ccccc1OCc1ccccc1Cl)NC1CC1,-1.71
4,COC1(OC)N=C(N)C2(C#N)C(c3ccccc3)NC(C)=CC12C#N (centres unmarked),2.16
5,O=C(c1cnn(C(=O)COc2ccc(Cl)cc2)c1)c1ccccc1O,-2.03
6,CCOC(=O)CNC(=O)CSc1nnc(-c2ccncc2)n1-c1ccc(Cl)cc1,-8.18
7,COCCNC(=O)CN(c1ccc(F)cc1)S(=O)(=O)c1ccc2c(c1)OCCO2,6.36
8,CCOC(=O)C1CCN(C(=O)CCc2c(C)nc3c(-c4ccc(F)cc4)c(C)nn3c2C)CC1,-71.1
9,Cc1cc(C)cc(NC(=S)N2CCC(c3nc4ccccc4s3)CC2)c1,4.27
10,O=C(NCCN1CCCCC1)/C(=C/c1ccco1)NC(=O)c1ccccc1,-40.6
11,Nc1ccc(N2CCN(C(=O)c3cccs3)CC2)cc1,-0.0153
12,Cl.NNC(N)=O,-0.971
13,O=C(CSCc1ccccc1)Nc1cc([N+](=O)[O-])ccc1F,6.82
14,O=C(COC(=O)c1cc(=O)[nH]c(=O)[nH]1)Nc1cccc(S(=O)(=O)N2CCOCC2)c1,8.94
15,CSc1cccc(CN2CCCC(C(=O)Nc3cccc(-n4cccn4)c3)C2)c1 (centres unmarked),-28.6
16,O=C(Nc1ccccc1)N1CCCN(c2ccc(C(F)(F)F)cn2)CC1,-33.6
17,CCOC(=O)c1c(C)[nH]c(C)c1S(=O)(=O)Nc1ccc(CN2CCCCC2)cc1,12.4
18,CCN(CC)CCNC(=O)Cn1nc(Cc2ccncc2)c2ccccc2c1=O,0.05
19,Cc1ccccc1SCC(=O)OCC(=O)N(C)c1c(N)n(Cc2ccccc2)c(=O)[nH]c1=O,2.2
20,COc1ccccc1OCC(=O)N1CCN(C(=O)COc2ccccc2OC)CC1,-1.94
21,COCC(=O)N(Cc1ccccc1)c1ccccn1,6.35
22,O=C(CN1C(=O)NC2(CCCCCC2)C1=O)N1CCN(c2ccccc2)CC1,-2.9
